# Results reported in the supplement of paper PMC8728848.
# Some of the results follow.
# Columns and labels:
# Test in all cases: glycan array binding signal (z-score within array); higher = stronger binding
# Details in all cases: glycan notation: IUPAC condensed, linker removed
# [1] = biological target: GlcNAc(b1-3)Gal(b1-4)GlcNAc(b1-2)Man(a1-3)[GlcNAc(b1-3)Gal(b1-4)GlcNAc(b1-2)Man(a1-6)]Man(b1-4)GlcNAc(b1-4)[Fuc(a1-6)]GlcNAc
# In short: (§1)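 Glycan array data came from 3228 arrays in the Consortium for Functional Glycomics database, and only arrays with an available protein sequence were kept. Glycan names were put into IUPAC-condensed notation, and columns mapping to the same glycan were averaged. The binding signal is a within-array Z-score, averaged across arrays of one protein sequence run at different concentrations or buffers and across linkers. A negative Z-score can be read as non-binding.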
# [2] = biological target: GlcNAc(b1-3)Gal(b1-4)GlcNAc(b1-2)[GlcNAc(b1-3)Gal(b1-4)GlcNAc(b1-6)]Man(a1-6)[GlcNAc(b1-3)Gal(b1-4)GlcNAc(b1-2)Man(a1-3)]Man(b1-4)GlcNAc(b1-4)GlcNAc
# In short: as §1
# [3] = biological target: GlcNAc(b1-3)Gal(b1-4)GlcNAc(b1-3)Gal(b1-4)GlcNAc
# In short: as §1
# [4] = biological target: GlcNAc(b1-3)Gal(b1-4)GlcNAc(b1-3)Gal(b1-4)GlcNAc(b1-2)Man(a1-3)[GlcNAc(b1-3)Gal(b1-4)GlcNAc(b1-3)Gal(b1-4)GlcNAc(b1-2)Man(a1-6)]Man(b1-4)GlcNAc(b1-4)GlcNAc
# In short: as §1
# [5] = biological target: GlcNAc(b1-3)Gal(b1-4)GlcNAc(b1-3)Gal(b1-4)GlcNAc(b1-2)Man(a1-3)[GlcNAc(b1-3)Gal(b1-4)GlcNAc(b1-3)Gal(b1-4)GlcNAc(b1-2)Man(a1-6)]Man(b1-4)GlcNAc(b1-4)[Fuc(a1-6)]GlcNAc
# In short: as §1
# [6] = biological target: GlcNAc(b1-3)Gal(b1-4)GlcNAc(b1-3)Gal(b1-4)GlcNAc(b1-2)[GlcNAc(b1-3)Gal(b1-4)GlcNAc(b1-3)Gal(b1-4)GlcNAc(b1-6)]Man(a1-6)[GlcNAc(b1-3)Gal(b1-4)GlcNAc(b1-3)Gal(b1-4)GlcNAc(b1-2)Man(a1-3)]Man(b1-4)GlcNAc(b1-4)[Fuc(a1-6)]GlcNAc
# In short: as §1
# [7] = biological target: GlcNAc(b1-3)Gal(b1-4)GlcNAc(b1-3)Gal(b1-4)GlcNAc(b1-3)Gal(b1-4)GlcNAc(b1-2)Man(a1-3)[GlcNAc(b1-3)Gal(b1-4)GlcNAc(b1-3)Gal(b1-4)GlcNAc(b1-3)Gal(b1-4)GlcNAc(b1-2)Man(a1-6)]Man(b1-4)GlcNAc(b1-4)GlcNAc
# In short: as §1
# [8] = biological target: GlcNAc(b1-3)Gal(b1-4)GlcNAc(b1-3)Gal(b1-4)GlcNAc(b1-3)Gal(b1-4)GlcNAc(b1-2)Man(a1-3)[GlcNAc(b1-3)Gal(b1-4)GlcNAc(b1-3)Gal(b1-4)GlcNAc(b1-3)Gal(b1-4)GlcNAc(b1-2)Man(a1-6)]Man(b1-4)GlcNAc(b1-4)[Fuc(a1-6)]GlcNAc
# In short: as §1
# [9] = biological target: GlcNAc(b1-3)Gal(b1-4)GlcNAc(b1-3)Gal(b1-4)GlcNAc(b1-3)Gal(b1-4)GlcNAc(b1-2)[GlcNAc(b1-3)Gal(b1-4)GlcNAc(b1-3)Gal(b1-4)GlcNAc(b1-3)Gal(b1-4)GlcNAc(b1-6)]Man(a1-6)[GlcNAc(b1-3)Gal(b1-4)GlcNAc(b1-3)Gal(b1-4)GlcNAc(b1-3)Gal(b1-4)GlcNAc(b1-2)Man(a1-3)]Man(b1-4)GlcNAc(b1-4)[Fuc(a1-6)]GlcNAc
# In short: as §1
# [10] = biological target: GlcNAc(b1-3)Gal(b1-4)GlcNAc(b1-3)Gal(b1-4)GlcNAc(b1-3)Gal(b1-4)GlcNAc(b1-3)Gal(b1-4)GlcNAc(b1-2)Man(a1-3)[GlcNAc(b1-3)Gal(b1-4)GlcNAc(b1-3)Gal(b1-4)GlcNAc(b1-3)Gal(b1-4)GlcNAc(b1-3)Gal(b1-4)GlcNAc(b1-2)Man(a1-6)]Man(b1-4)GlcNAc(b1-4)GlcNAc
# In short: as §1
# [11] = biological target: GlcNAc(b1-3)Gal(b1-4)GlcNAc(b1-3)Gal(b1-4)GlcNAc(b1-3)Gal(b1-4)GlcNAc(b1-3)Gal(b1-4)GlcNAc(b1-2)Man(a1-3)[GlcNAc(b1-3)Gal(b1-4)GlcNAc(b1-3)Gal(b1-4)GlcNAc(b1-3)Gal(b1-4)GlcNAc(b1-3)Gal(b1-4)GlcNAc(b1-2)Man(a1-6)]Man(b1-4)GlcNAc(b1-4)[Fuc(a1-6)]GlcNAc
# In short: as §1
# [12] = biological target: GlcNAc(b1-3)Gal(b1-4)GlcNAc(b1-3)Gal(b1-4)GlcNAc(b1-3)Gal(b1-4)GlcNAc(b1-3)Gal(b1-4)GlcNAc(b1-2)[GlcNAc(b1-3)Gal(b1-4)GlcNAc(b1-3)Gal(b1-4)GlcNAc(b1-3)Gal(b1-4)GlcNAc(b1-3)Gal(b1-4)GlcNAc(b1-6)]Man(a1-6)[GlcNAc(b1-3)Gal(b1-4)GlcNAc(b1-3)Gal(b1-4)GlcNAc(b1-3)Gal(b1-4)GlcNAc(b1-3)Gal(b1-4)GlcNAc(b1-2)Man(a1-3)]Man(b1-4)GlcNAc(b1-4)[Fuc(a1-6)]GlcNAc
# In short: as §1
# [13] = biological target: GlcNAc(b1-3)Gal(b1-4)GlcNAc(b1-3)Gal(b1-4)GlcNAc(b1-3)GalNAc
# In short: as §1
# [14] = biological target: GlcNAc(b1-3)Gal(b1-4)GlcNAc(b1-3)GalNAc
# In short: as §1
# [15] = biological target: GlcNAc(b1-3)Gal(b1-4)GlcNAc(b1-3)[GlcNAc(b1-3)Gal(b1-4)GlcNAc(b1-3)]GalNAc
# In short: as §1
# [16] = biological target: GlcNAc(b1-3)Gal(b1-4)GlcNAc(b1-6)[Gal(b1-3)]GalNAc
# In short: as §1
# [17] = biological target: GlcNAc(b1-3)Gal(b1-4)GlcNAc(b1-6)[GlcNAc(b1-3)Gal(b1-3)]GalNAc
# In short: as §1
# [18] = biological target: GlcNAc(b1-3)Gal(b1-4)GlcNAc(b1-6)[GlcNAc(b1-3)]Gal(b1-4)GlcNAc
# In short: as §1
# GlcNAc(b1-3)GalNAc = biological target: GlcNAc(b1-3)GalNAc
# In short: as §1
# GlcNAc(b1-3)Man = biological target: GlcNAc(b1-3)Man
# In short: as §1
# [19] = biological target: GlcNAc(b1-3)[GlcNAc(b1-4)][GlcNAc(b1-6)]GlcNAc
# In short: as §1
# [20] = biological target: GlcNAc(b1-3)[GlcNAc(b1-6)]Gal(b1-4)GlcNAc
# In short: as §1
# [21] = biological target: GlcNAc(b1-3)[GlcNAc(b1-6)]GalNAc
# In short: as §1
# [22] = biological target: GlcNAc(b1-4)Gal(b1-4)GlcNAc
# In short: as §1
# GlcNAc(b1-4)GlcNAc = biological target: GlcNAc(b1-4)GlcNAc
# In short: as §1
# [23] = biological target: GlcNAc(b1-4)GlcNAc(b1-4)GlcNAc
# In short: as §1
# [24] = biological target: GlcNAc(b1-4)GlcNAc(b1-4)GlcNAc(b1-4)GlcNAc(b1-4)GlcNAc
# In short: as §1
# [25] = biological target: GlcNAc(b1-4)GlcNAc(b1-4)GlcNAc(b1-4)GlcNAc(b1-4)GlcNAc(b1-4)GlcNAc
# In short: as §1
# [26] = biological target: GlcNAc(b1-4)[GlcNAc(b1-6)]GalNAc
# In short: as §1
# [27] = biological target: GlcNAc(b1-6)Gal(b1-4)GlcNAc
# In short: as §1
# GlcNAc(b1-6)GalNAc = biological target: GlcNAc(b1-6)GalNAc
# In short: as §1
# GlcNAc3Prop(b1-4)GlcNAc = biological target: GlcNAc3Prop(b1-4)GlcNAc
# In short: as §1
# [28] = biological target: GlcNAc6S(b1-3)Gal(b1-4)GlcNAc
# In short: as §1
# Kdn(a2-3)Gal(b1-3)GalNAc = biological target: Kdn(a2-3)Gal(b1-3)GalNAc
# In short: as §1
# Kdn(a2-3)Gal(b1-3)GlcNAc = biological target: Kdn(a2-3)Gal(b1-3)GlcNAc
# In short: as §1
# Kdn(a2-3)Gal(b1-4)Glc = biological target: Kdn(a2-3)Gal(b1-4)Glc
# In short: as §1
# Kdn(a2-3)Gal(b1-4)GlcNAc = biological target: Kdn(a2-3)Gal(b1-4)GlcNAc
# In short: as §1
# [29] = biological target: Kdn(a2-3)Gal(b1-4)[Fuc(a1-3)]GlcNAc
# In short: as §1
binder,measurement,setting,value
PpFlo1 (Pichia pastoris) (protein) MGSSHHHHHHSSGLVPRGSHMQESGDGDISDSAYACDIDATRYDGFNATIYEFQPGDGRLTRDPVFMSTGYLNRTQLHSITGVTDPGFSIYTPGVPTTTLYGIPNVNWENLLLELKGYFRAEVSGDYGLSLRNIDDSAILFFGKETAFQCCNENSISNEASTDYSLFTIFRQEGDETTNLDSFTYTQYLEAGKYYPVRTFFVNIERHAVFNFTMTLPDGTELTDFHNYIYQFGALDEEQCQA,glycan array binding signal (z-score),[1],-0.131
same,glycan array binding signal (z-score),[2],-0.213
same,glycan array binding signal (z-score),[3],0.551
same,glycan array binding signal (z-score),[4],0.609
same,glycan array binding signal (z-score),[5],0.579
same,glycan array binding signal (z-score),[6],0.35
same,glycan array binding signal (z-score),[7],-0.321
same,glycan array binding signal (z-score),[8],0.586
same,glycan array binding signal (z-score),[9],0.172
same,glycan array binding signal (z-score),[10],-0.543
same,glycan array binding signal (z-score),[11],0.114
same,glycan array binding signal (z-score),[12],0.567
same,glycan array binding signal (z-score),[13],-0.514
same,glycan array binding signal (z-score),[14],-0.449
same,glycan array binding signal (z-score),[15],-0.39
same,glycan array binding signal (z-score),[16],-0.189
same,glycan array binding signal (z-score),[17],-0.294
same,glycan array binding signal (z-score),[18],-0.394
same,glycan array binding signal (z-score),GlcNAc(b1-3)GalNAc,0.281
same,glycan array binding signal (z-score),GlcNAc(b1-3)Man,1.9
same,glycan array binding signal (z-score),[19],0.131
same,glycan array binding signal (z-score),[20],1.26
same,glycan array binding signal (z-score),[21],0.217
same,glycan array binding signal (z-score),[22],-0.586
same,glycan array binding signal (z-score),GlcNAc(b1-4)GlcNAc,-0.231
same,glycan array binding signal (z-score),[23],-0.439
same,glycan array binding signal (z-score),[24],-0.26
same,glycan array binding signal (z-score),[25],-0.358
same,glycan array binding signal (z-score),[26],-0.617
same,glycan array binding signal (z-score),[27],-0.375
same,glycan array binding signal (z-score),GlcNAc(b1-6)GalNAc,-0.373
same,glycan array binding signal (z-score),GlcNAc3Prop(b1-4)GlcNAc,-0.063
same,glycan array binding signal (z-score),[28],-0.417
same,glycan array binding signal (z-score),Kdn(a2-3)Gal(b1-3)GalNAc,-0.254
same,glycan array binding signal (z-score),Kdn(a2-3)Gal(b1-3)GlcNAc,-0.318
same,glycan array binding signal (z-score),Kdn(a2-3)Gal(b1-4)Glc,-0.2
same,glycan array binding signal (z-score),Kdn(a2-3)Gal(b1-4)GlcNAc,-0.224
same,glycan array binding signal (z-score),[29],-0.255
